# Laboratory results from the supplement of paper PMC3334620.
# Over roughly 33,000 sequences, “E-score (-0.5 to 0.5)” has its median near -0.012; the highest 2% begin near 0.27. Some of the results follow.
# Target: T1, Vhr1 (UniProt P40522)
# T1 sequence: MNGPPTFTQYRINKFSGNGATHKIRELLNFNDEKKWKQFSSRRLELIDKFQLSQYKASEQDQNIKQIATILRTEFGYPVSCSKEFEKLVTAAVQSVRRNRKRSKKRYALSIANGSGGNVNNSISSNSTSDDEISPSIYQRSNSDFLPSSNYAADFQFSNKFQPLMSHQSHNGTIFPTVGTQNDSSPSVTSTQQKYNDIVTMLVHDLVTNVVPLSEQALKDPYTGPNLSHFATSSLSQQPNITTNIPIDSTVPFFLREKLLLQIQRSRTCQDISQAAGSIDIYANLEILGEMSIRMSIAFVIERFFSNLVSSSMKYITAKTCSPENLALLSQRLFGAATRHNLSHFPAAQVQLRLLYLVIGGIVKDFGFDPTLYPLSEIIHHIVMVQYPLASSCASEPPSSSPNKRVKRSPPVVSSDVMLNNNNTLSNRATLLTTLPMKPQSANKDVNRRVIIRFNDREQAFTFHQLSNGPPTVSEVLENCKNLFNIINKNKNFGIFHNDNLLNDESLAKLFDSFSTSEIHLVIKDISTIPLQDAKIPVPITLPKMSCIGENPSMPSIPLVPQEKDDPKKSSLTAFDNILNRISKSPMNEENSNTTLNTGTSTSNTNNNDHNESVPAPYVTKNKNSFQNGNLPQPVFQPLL
# Test: PBM E-score (8-mer binding enrichment) (E-score (-0.5 to 0.5)); higher = stronger / more preferred TF binding; most listed sequences are background and not binding sites
# Details: protein concentration: 200 nM; construct: GST-full length
# Procedure, shortened: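 E-scores (a modified Wilcoxon-Mann-Whitney statistic) were assigned by the Universal PBM Analysis Suite to every ungapped eight-base word pooled with its reverse complement. The input came from universal all-10-mer Agilent arrays made double-stranded by primer extension and probed with GST-tagged yeast transcription factors at about 100-200 nM. Fluorescent anti-GST detected bound protein, and masliner normalised the scans.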
row,Sequence,PBM E-score
1,CCACTCCC,0.0557
2,ACCGTTGA,-0.0903
3,CTGACCCC,-0.0745
4,ACACTTAT,-0.0136
5,ACCGTACT,0.244
6,AATCCTCT,-0.18
7,CACTTCAG,-0.134
8,GGAAGGAA,-0.11
9,AGTCCCTC,-0.096
10,ACTCCGTC,0.0781
11,GCCCGAAC,-0.0883
12,AGCTAGCC,-0.174
13,CCTCAACC,-0.133
14,CTCTCGGC,-0.129
15,AAGTGGGA,0.129
16,GGTAGTAC,0.128
17,GACATCAA,-0.00948
18,CTCCCGCA,0.0259
19,ACCCACCC,0.397
20,AGAAAGCA,0.00516
21,TGAAAACA,-0.0922
22,AACACAAG,-0.141
23,ACTTGTGA,0.0909
24,AAGGTATG,0.0908
25,ATTCGAGA,-0.0158

row,Sequence,PBM E-score
1,GCTGACAA,-0.0645
2,AAAATCCC,-0.106
3,CTTGCAAC,0.0737
4,ATACAGAG,0.116
5,GCCGCAAC,-0.0309
6,AGTACGTG,-0.063
7,GGTGCCCA,-0.0839
8,ATCAACGC,-0.103
9,CGCGGTCA,0.197
10,ACTTACAG,-0.0732
11,GAACCTAC,-0.0923
12,ACATCGGG,0.0983
13,ACTTAGTA,0.0996
14,AAGCCTGA,-0.235
15,GTACTAGA,0.0963
16,AATACGAT,0.0858
17,CCGATGCA,-0.0663
18,CCGGATCA,0.11
19,GTTGGCGA,-0.103
20,CAGTCTCG,-0.238
21,CTCTACTA,0.0116
22,ATACAGGG,0.164
23,ATACGCGA,0.155
24,CCAGCTAG,-0.114
25,AGAAGAAG,-0.203

row,Sequence,PBM E-score
1,CTCAGGCA,0.156
2,CCTGTGCC,-0.158
3,GATAGCGA,-0.0453
4,ATACCGCA,0.222
5,CTGGTCCA,-0.00784
6,GAGTTTCA,0.0998
7,CCACGCGC,-0.229
8,GCGTGTAC,0.0816
9,CCGTTGTA,0.119
10,GATTTCGC,0.16
11,AGTGACCC,0.133
12,ATTGATCA,-0.0296
13,AATATCGC,0.0441
14,CGCGATTA,0.162
15,CCCAAACA,0.145
16,GCAGCTAC,-0.0936
17,AAGATTTA,-0.0338
18,CGCCTAAA,-0.149
19,AGGTCAGC,-0.0461
20,CCCATGCG,-0.0165
21,TATATCAA,0.116
22,CACGCAGC,0.0559
23,ATAGATCG,-0.0167
24,AATACTTG,-0.0248
25,AGTACGTC,0.13

row,Sequence,PBM E-score
1,CAAGTTAG,-0.00247
2,CTCTAAAA,-0.188
3,AGGGTATC,-0.0208
4,AACACGTC,-0.151
5,AACAACCT,-0.117
6,CCGCCACA,0.185
7,CTTTTTCC,-0.26
8,AGATATAT,0.131
9,CGCCAACC,-0.156
10,GGTAGAAA,-0.205
11,GCATCTCC,0.0271
12,ACACTCTC,0.223
13,AGCGAAAC,0.0638
14,CGGTAGAG,-0.0875
15,CGGCCCGC,0.0634
16,AGGCTGGC,0.00081
17,AGAAGCCT,-0.216
18,GAGGTCGA,0.0606
19,GTGGATAA,-0.0412
20,AAACAACG,-0.00681
21,AGGCCTTG,-0.23
22,GCCGTCGA,0.0723
23,TCACCCAA,0.177
24,CAACCACC,0.00878
25,GGCTCCCA,-0.16

row,Sequence,PBM E-score
1,ATTGCCGC,-0.0756
2,ATGGAGGG,0.111
3,AAGATGGG,-0.0481
4,CGTTCTAA,-0.00665
5,AAAATATC,0.0289
6,AGAATAAC,0.0187
7,CGGTACAA,-0.0176
8,AGTCCATG,0.132
9,ACCTGAAC,-0.052
10,GCTGATCC,0.142
11,AGTACTCA,0.171
12,GTACCGGA,-0.00911
13,GGGGGTTA,-0.147
14,CCGGGATA,0.00258
15,CGCCGTCC,-0.263
16,CTATGTGC,0.108
17,CGGGCGAC,0.107
18,AGTCGTGA,0.184
19,CCGGTCTC,-0.00313
20,AGCATGCG,0.0279
21,ACTAGAGA,-0.191
22,CAAGTGTA,0.0223
23,GCGCGCAA,0.3
24,CTACTATA,0.168
25,ACAAGGAA,-0.00062

row,Sequence,PBM E-score
1,ACAATCCC,0.166
2,AAGTTGGT,0.117
3,AGCACTTG,-0.155
4,GACTGGTA,0.24
5,AAACGCAG,-0.0854
6,AAGTTCAG,-0.194
7,CGCTGACC,0.0181
8,AGTTAAGA,-0.0696
9,ACCTTCCC,0.0308
10,CTAGCACC,0.103
11,GGGGTTAC,-0.154
12,CTTGGACC,-0.22
13,CGGGAATA,-0.0266
14,AGCAGAAC,-0.00038
15,GACCATAC,0.0781
16,GGCGACCC,0.0702
17,CGTATTGC,-0.15
18,ACGTTGGC,-0.0923
19,GAGGGGCC,-0.0885
20,CTCCGCCA,-0.0746
21,CGATCCCG,0.0117
22,TATGGTGA,0.112
23,GGGACCAA,0.0312
24,GCTCAGCC,0.101
25,CAAACTAA,0.102

row,Sequence,PBM E-score
1,AAGGATTC,-0.0556
2,CCTTACAA,-0.27
3,AGTAGTAG,0.0116
4,AATATACT,0.0364
5,ACTTGCCC,-0.11
6,ATAGCCCA,0.0143
7,CCCCGCGA,0.171
8,CCCTGACA,0.0436
9,CGGAGGTC,0.0655
10,TACAACGA,0.0506
11,CAATTTGA,-0.15
12,GAGGACAA,-0.189
13,AGCGTGGC,-0.144
14,CTGTCGGC,0.0952
15,CCAGCTGC,-0.105
16,GATTTGAC,0.037
17,AATCTATG,0.0433
18,ATAAGCTC,-0.0861
19,ACACGCTG,0.0188
20,CGAAACCC,-0.0543
21,CATAGTTA,-0.0405
22,ACTTCGCT,0.0552
